Measurements from paper PMC4336329 (PLoS ONE, 2015).
Screen size: about 310,000 compounds; about 2,200 (0.71%) showed an effect of 50% or more. Effects have a minus sign here. Some of the results follow.

These compounds were tested against human ether-à-go-go-related gene (hERG) potassium channel (human, UniProt Q12809) (assay: primary screen, population patch clamp on CHO cells stably expressing hERG).
human ether-à-go-go-related gene (hERG) potassium channel, sequence (Q12809 whole entry, looked up): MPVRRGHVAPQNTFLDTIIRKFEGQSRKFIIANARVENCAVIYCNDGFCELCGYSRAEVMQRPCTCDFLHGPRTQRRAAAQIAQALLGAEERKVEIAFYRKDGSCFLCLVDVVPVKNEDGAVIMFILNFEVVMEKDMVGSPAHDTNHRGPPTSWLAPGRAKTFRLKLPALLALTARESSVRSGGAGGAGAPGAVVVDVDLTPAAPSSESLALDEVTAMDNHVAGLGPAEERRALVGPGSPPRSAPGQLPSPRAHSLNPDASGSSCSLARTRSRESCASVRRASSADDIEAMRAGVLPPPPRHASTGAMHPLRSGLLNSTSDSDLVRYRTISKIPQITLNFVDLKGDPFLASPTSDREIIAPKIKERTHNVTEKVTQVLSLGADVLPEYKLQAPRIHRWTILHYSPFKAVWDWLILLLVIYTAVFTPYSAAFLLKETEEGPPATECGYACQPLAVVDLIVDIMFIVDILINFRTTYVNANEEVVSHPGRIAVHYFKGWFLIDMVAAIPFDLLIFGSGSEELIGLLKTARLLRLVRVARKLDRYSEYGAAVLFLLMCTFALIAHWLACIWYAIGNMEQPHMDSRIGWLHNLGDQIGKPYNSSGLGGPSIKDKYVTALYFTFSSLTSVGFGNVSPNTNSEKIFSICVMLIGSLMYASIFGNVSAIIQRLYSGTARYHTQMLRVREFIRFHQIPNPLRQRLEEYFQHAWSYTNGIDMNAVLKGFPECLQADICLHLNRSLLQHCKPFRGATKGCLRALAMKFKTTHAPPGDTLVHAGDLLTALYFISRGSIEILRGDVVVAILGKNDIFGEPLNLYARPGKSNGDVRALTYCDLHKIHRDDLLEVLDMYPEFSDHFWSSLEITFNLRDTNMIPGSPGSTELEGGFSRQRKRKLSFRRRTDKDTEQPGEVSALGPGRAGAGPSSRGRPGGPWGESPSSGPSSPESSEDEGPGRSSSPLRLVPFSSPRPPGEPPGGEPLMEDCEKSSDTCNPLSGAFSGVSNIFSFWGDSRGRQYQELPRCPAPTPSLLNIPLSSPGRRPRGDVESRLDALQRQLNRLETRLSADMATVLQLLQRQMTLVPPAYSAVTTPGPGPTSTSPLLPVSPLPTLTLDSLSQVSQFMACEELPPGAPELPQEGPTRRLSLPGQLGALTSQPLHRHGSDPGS

In order of rising “hERG current change (%, negative = inhibition) at 1uM” value:
1. O=C(CNCC1(N2CCOCC2)CCCCC1)Nc1ccc(Cl)cc1  -36%
2. Cc1ccc2c(c1)nnn2C1CCN(CC(=O)Nc2ccc3c(c2)OCCO3)CC1  -29.1%
3. CC(NC(=O)c1ccccc1SCC(=O)N1CCCC1)c1ccccc1 (stereo not drawn)  -18.6%
4. COc1ccc(C2=Nn3c(nnc3-c3ccco3)SC2)cc1  -16.7%
5. Cn1c(=O)c(=O)n(C)c2cc(S(=O)(=O)N3CCCC3C(=O)Nc3ccccc3F)ccc21 (stereo not drawn)  -13.2%
6. Cc1ccc2nc(SCC(=O)O)nc(C)c2c1  -12.9%
7. CC(C)Cn1c(CN(Cc2ccccc2)Cc2ccccc2)nc2c1c(=O)n(C)c(=O)n2C  -7.94%
8. O=C(NCCc1ccccc1)c1cc(-c2ccco2)on1  -6.42%
9. COc1cc2c(cc1OC)/C(=C/c1ccc(Cl)cc1)C(=O)OC2  -5.29%
10. CN1CCN(c2ccc(C(=O)c3ccccc3)cc2[N+](=O)[O-])CC1  -4.33%
11. Cc1cccc2cc(CN(Cc3ccc(F)cc3)Cc3nnnn3C3CCCC3)c(=O)[nH]c12  -3.82%
12. COc1ccc(-c2cc(C(F)(F)F)nc(NC3CCCC3)n2)cc1OC  -3.53%
13. O=C(CCCc1ccccc1)Nc1ccnn1C1CCN(Cc2ccc(CO)o2)CC1  -2.31%
14. CCOCCOC(=O)c1[nH]c2c(c1C)C(=O)CC(c1cccs1)C2 (stereo not drawn)  -1.53%
15. O=C(NCc1ccccn1)c1nc(-c2ccc(C(F)(F)F)cc2)no1  -1.11%
16. Br.CCc1nnc2n1N=C(c1cccc([N+](=O)[O-])c1)CS2  -1.09%
17. Cc1c(NC(=O)c2c(F)cccc2F)c(=O)n(-c2ccccc2)n1C  -0.581%
18. O=C(NCc1ccco1)C1CCCN(S(=O)(=O)c2cnc[nH]2)C1 (stereo not drawn)  -0.476%
19. O=C(CCCSc1nc2ccccc2c(=O)[nH]1)c1ccccc1  -0.382%
20. O=C(OCC(=O)N1CCN(C(=O)c2ccco2)CC1)c1cccc(F)c1  0.0396%
21. O=C(NCc1ccc(F)cc1Cl)C1CCN(S(=O)(=O)N2CCCCC2)CC1  0.909%
22. O=C(NCc1cccnc1)c1cc(-c2ccccc2)on1  1.78%
23. Cc1cccc(C)c1NC(=O)/C(=C/c1ccco1)c1ccccc1  1.83%
24. O=C(c1c(F)cccc1F)N1CCCC(c2nc(-c3ccc(F)cc3)no2)C1 (stereo not drawn)  2.23%
25. Nc1ccc2nc(NC(=O)C3CCCCC3)sc2c1  2.24%
26. CC1(C(=O)Nc2nnc(C(C)(C)C)s2)Cc2ccccc2C(=O)O1 (stereo not drawn)  2.79%
27. Cc1ccc(S(=O)(=O)NC(C)C(c2cccs2)N2CCN(C)CC2)cc1 (stereo not drawn)  2.95%
28. O=C(NCc1ccccc1)c1cncc(Br)c1  3.55%
29. CC(=O)Nc1ccc(SCC(=O)Nc2oc(C)c3c(C)n[nH]c(=O)c23)cc1  3.74%
30. CCOc1cc(NC(=S)NCCc2ccccc2)c(OCC)cc1NC(C)=O  3.76%
31. C=C(C)Cn1c(SCC(=O)O)nc2c1c(=O)[nH]c(=O)n2C  4.13%
32. Cc1ccc(-c2cc(-c3ccc(C)o3)nc(N)c2C#N)cc1  4.41%
33. Cc1cc(C)c2nc(-c3ccccn3)cc(C(=O)NCc3ccc(S(N)(=O)=O)cc3)c2c1  4.65%
34. O=C(CC(NC(=O)c1ccccc1Cl)c1ccccc1)NC1=NCCS1 (stereo not drawn)  5.19%
35. CC(C)(CO)NS(=O)(=O)c1ccc2c(c1)C(=NO)c1cc(S(=O)(=O)NC(C)(C)CO)ccc1-2  6.72%
36. Cc1cc(Br)ccc1NC(=O)CN(C)C(=O)COc1cccc2c1OC(C)(C)C2  6.94%
37. O=C(N/N=C\c1ccc(-c2ccccc2[N+](=O)[O-])o1)C1COc2ccccc2O1 (stereo not drawn)  7.03%
38. Cc1ccc(NC(=S)N2CCSC2c2cccs2)cc1 (stereo not drawn)  7.06%
39. O=C(Nc1ccccc1O)c1ccc(Cl)cc1  7.12%
40. COc1c(Br)cc2c(C)c(C(=O)N3CCOCC3)oc2c1Br  7.21%
41. CC/C(=C/c1sc2ccc(C)cc2[n+]1CCCS(=O)(=O)[O-])SC  7.32%
42. Cc1ccccc1CNc1ncnc2cc(Cl)ccc12  7.99%
43. CCC(c1nnc(SCC(=O)Nc2cccc(S(N)(=O)=O)c2)n1Cc1ccccc1)N(C)C (stereo not drawn)  8%
44. CCC(=O)c1ccc(OC(=O)N2CCOCC2)cc1  8.03%
45. CCOCCCNC(=O)C(c1ccc(OC)cc1)N(Cc1cccs1)C(=O)c1ccccc1O (stereo not drawn)  8.1%
46. CCc1ccccc1-n1c(SCC(=O)Nc2ccc3c(c2)OCCO3)nc2[nH]ncc2c1=O  8.23%
47. CCOC(=O)CC[NH3+].[Cl-]  8.45%
48. Cc1cc(NC(=O)CSc2nnc(NCc3ccccc3)s2)no1  8.62%
49. COc1ccc(/C=C2/SC(=O)NC2=O)cc1  8.64%
50. COc1ccc(-n2c(SCC(=O)N/N=C(\C)c3cccnc3)nc3ccccc3c2=O)cc1  8.92%
51. CCN(CC(=O)Nc1ccccc1OC)C(=O)CCc1ccccc1  9.39%
52. N#C/C(=C\c1cccc(Cl)c1)c1n[nH]c(Cn2cncn2)n1  9.52%
53. O=C(CSc1nccn1Cc1ccco1)Nc1ccccc1C(F)(F)F  9.76%
54. CC(Sc1nc(N)cc(N)n1)C(=O)NCC1CCCO1 (stereo not drawn)  9.79%
55. Cc1c(O)cc2n(c1=O)-c1ccccc1C2(C)C  10.6%
56. COc1ccc(NC(=O)CS(=O)(=O)c2ccc(F)cc2)cc1  10.6%
57. COc1cc([N+](=O)[O-])cc2cc(C(=O)N3CCN=C3c3ccccc3)c(=O)oc12  10.7%
58. CN1CCN(C(=O)CSc2nnc(COc3ccc(Cl)cc3)o2)CC1  10.7%
59. COc1ccc(NC(=O)COC(=O)Cn2cnc3ccccc3c2=O)cc1OC  10.9%
60. O=C(CCc1ccccc1)NNC(=O)c1ccc(Cl)cc1  10.9%
61. OC[C@H]1OC(O)[C@H](O)[C@@H](O)[C@H]1O (stereo partly drawn)  11.1%
62. O=C(O)CC/C(=N/Nc1ccc([N+](=O)[O-])cc1)C(=O)O  11.1%
63. COc1ccc(C(=O)n2cnc3ccccc32)cc1  11.1%
64. COC(=O)/C=c1\[nH]c2nnc(C)n2c1=O  11.3%
65. c1cnc(Nc2nc(-c3ccc4ccccc4c3)cs2)nc1  11.6%
66. Fc1ccccc1/C=N/n1cc(-c2ccccc2)[nH]c1=S  11.9%
67. CN=C(Nc1cccnc1)c1ccccc1  11.9%
68. CC(/C=N/NC(=S)Nc1cccc(S(=O)(=O)N(C)C)c1)c1ccccc1 (stereo not drawn)  12.3%
69. CCOC(=O)C1=C(C)N(CCCCCC(=O)O)C(=O)NC1c1ccc(Br)cc1 (stereo not drawn)  12.4%
70. OCC[C@H]1C[C@@H](O)[C@H](O)[C@]2(Cc3ccccc3CO2)O1  12.6%
71. CC(C)(C)SCCNC(=O)CN1C(=O)c2cccc3cccc1c23  12.7%
72. Cc1nonc1OCCNCc1c(C(=O)N(C)C)nc2ccc(Cl)cn12  12.7%
73. Cn1nnnc1SCC(=O)c1ccc(Br)s1  12.8%
74. CC1CN(CC(O)COC2CCC(C(C)(C)C)CC2)CC(C)O1.Cl (stereo not drawn)  13%
75. CC1=C(C(=O)OC(C)(C)C)C(c2ccc(Br)cc2)NC(=O)N1CCCC(=O)O (stereo not drawn)  13.4%
76. Cc1cccc(NC(=S)NNC(=O)c2ccc(Br)o2)c1  13.8%
77. CC(NC(=O)CCCN1C(=O)c2ccccc2C1=O)c1ccc2c(c1)CCCC2 (stereo not drawn)  14.7%
78. COc1ccc(/C=C2\CCC(C3CCCC3)C2=O)cc1 (stereo not drawn)  14.8%
79. O=C(CNC(=O)c1ccco1)OCC(=O)c1ccc(Br)cc1  15.1%
80. CC(C)(C)C(=O)Nc1cc(C(F)(F)F)ccc1N1CCOCC1  15.1%
81. CCc1cc2c(=O)c(-c3cscn3)coc2c(CN(C)C)c1O  15.2%
82. COc1cc(NC(=O)COc2ccc(Cl)cc2)ccc1-c1cc2ccccc2oc1=O  15.3%
83. O=C1NC(=S)S/C1=C\c1coc2ccc(O)cc2c1=O  15.3%
84. COc1cc(C(=O)Nc2ccc(C(N)=O)cc2)c([N+](=O)[O-])cc1OC  15.6%
85. CNc1n[nH]c(=S)s1  16.1%
86. CC(=O)N1c2c(cc(Br)cc2S(=O)(=O)NCc2cccnc2)CC1C (stereo not drawn)  16.3%
87. CC(=O)c1cccc(NS(=O)(=O)c2csc(C(N)=O)c2)c1  17%
88. COc1ccc(S(=O)(=O)Nc2cc3c4c(oc3c3ccccc23)CCCC4=O)cc1  17.4%
89. O=C(O)c1ccc(Cl)c(S(=O)(=O)N(Cc2ccccc2)c2ccc(Cl)cc2)c1  20%
90. COc1cc(C(C)=O)ccc1OCc1cc(C(=O)N2CCSCC2)no1  31.5%
